To fix the notation:
B1: LINE1-full (parent)
chain: UACGUAGGUGGUUUUCCCCUGAUAGUGCUAAGGGGGCCUGGAAGUUUGGACUGGGCAGAGCUCAACACAGCGUGGCAAAGUGGCUGUGGCUAGACUGCCUCUCUGGAUUCCUCGUCACUCAGCAGGGCAUCUCUGAGAGAAAUGCC

Read counts are not given, so values of variants with three or more changes are uncertain.

This data set covers variants of B1. Kind of data set: self-cleavage, relative activity (ratio to wild type); higher = more cleavage; in vitro, sequencing; the parent is a self-cleaving ribozyme.
As to A57U A79U C116U, the self-cleavage came to 0.05.
As to A57G U87A U112C U143A, the self-cleavage is 0.08.
Take C56A A57G A78G G89A: the self-cleavage was 0.04.
Take A57G C128U U130G: the self-cleavage stood at 0.85.
G54U U109A U115C: the self-cleavage was found to be 0.96.
With G54A C68U U81C, the self-cleavage stood at 0.08.
A57U G80A U87C C90U: the self-cleavage is 0.04.
Regarding G54A A67U U108C, the self-cleavage worked out at 0.04.
Turning to A57G A65U G72C U96C, the self-cleavage worked out at 0.33.
In the case of A57U A65U A79G A141U it was 0.11; in that of A57G C71U G114A A124U, 0.14.
In the case of A57G U73A U132C, the self-cleavage was 0.83.
A57G U73A U132G: the self-cleavage is 0.65.
In the case of A57U A79U U87G, the self-cleavage was found to be 0.05.
Consider A57U A117U A129G, for which the self-cleavage was 0.14.
In the case of A57U U73C G80A U112C it was 0.02; in that of A57G U108C A141U, 0.67.
In the case of G55C U81A A136U it was 0.11; in that of G53U A67G U73C, 0; in that of C56U C84U A121U U143C, 0.03.
Regarding G54A C56U A59U C99U U102C, the self-cleavage turned out to be 0.04.
With A57G U85C A129G, the self-cleavage was 0.13.
In the case of A57U A117U A124U it was 0.18; in that of G54U U96C U112C A140U, 0.07; in that of A57G A77G U87A A92G, 0.
In the case of A57G A77G U87C A138G it was 0; in that of C56U A94G A117G A138U, 0.09.
Regarding G54A A79G U96A, the self-cleavage is 0.
In the case of A57C U85A A138G, the self-cleavage was found to be 0.21.
For A57G A64U U143A, the self-cleavage was 0.08.
In the case of G53A U81C A138U A141G it was 2.
In the case of A57G G127U A142G, the self-cleavage is 0.76.
On to A57G A124U A141G, for which the self-cleavage came out at 0.76.
As for A57U A77G G125U, the self-cleavage worked out at 0.06.
On to A57G U73A A77U A129G, for which the self-cleavage amounted to 0.97.
As to A57U A79G A107G, the self-cleavage turned out to be 0.12.
G53A A67G A136G: the self-cleavage is 0.44.
In the case of A57G G72A U91C U119C A124G A138G it was 0.41; in that of A57G G88U U102C U134A, 0.03; in that of G53A A78U A136G C146U, 2.22.
Consider A57G U62C U85C, for which the self-cleavage is 0.21.
On to G54C U62C A78G, for which the self-cleavage was determined as 0.06.
For G55C C76U U85C U87C, the self-cleavage was found to be 0.36.
As for A57G A79G A142G, the self-cleavage came to 0.42.
In the case of A57C A92U U115A U130A it was 0.04; in that of A57G U91C U115G, 0.26; in that of G55A U62C A117G A138G, 0.04.
Turning to G54U A78G U85C A140G, the self-cleavage was determined as 0.05.
Consider A57G U104C A140G, for which the self-cleavage was determined as 1.38.
With A57G G125A A140G, the self-cleavage was determined as 0.64.
For C56U A67G U104C, the self-cleavage turned out to be 0.28.
A57G A77U G82A A142G: the self-cleavage amounted to 1.41.
Consider G53A U100C U102C, for which the self-cleavage was found to be 1.25.
As to A57U A94G A141G, the self-cleavage is 0.16.
On to A57G A79U U115A, for which the self-cleavage is 1.78.
Consider A57U A59U G135A A140G, for which the self-cleavage amounted to 0.08.
G54U A69G A117C U134C A141G: the self-cleavage amounted to 0.84.
G53A U130C U134C: the self-cleavage worked out at 0.93.
In the case of G54A U73A A78G A141G it was 0.09; in that of G54A G72U U108C, 0.83.
For the variant G54A A77G A79U, the self-cleavage stood at 1.17.
In the case of A57U A65G G83A A138G it was 0.04; in that of A57G U62A U115C, 0.07.
In the case of A57U G97A A107U, the self-cleavage came out at 0.01.
Turning to A57C G88A U104A, the self-cleavage stood at 0.04.
As for G53U C61U U87A, the self-cleavage was 0.02.
As to G55A U115A A142G, the self-cleavage was determined as 0.22.
Take A57G A79G U112C U143C: the self-cleavage turned out to be 0.63.
As to A57U A79G A92G, the self-cleavage is 0.11.
In the case of A57G A117U A124U, the self-cleavage was determined as 0.79.
As for C56U G135A C145U, the self-cleavage stood at 0.1.
As for G54A C68U A129U, the self-cleavage was 0.07.
A57G A67C A140G: the self-cleavage came out at 0.06.
Turning to A57U A67G G72A U100A U143C, the self-cleavage was determined as 0.03.
As to A57U A77G A138G, the self-cleavage stood at 0.19.
Consider G55A A67U G88A A142G, for which the self-cleavage is 0.02.
Regarding A57G C71A A138U, the self-cleavage was determined as 0.14.
With A57G G126A A141U U143A, the self-cleavage was 1.21.
With C56G A64G A124U, the self-cleavage worked out at 0.04.
As to A57G A67G U134A, the self-cleavage came out at 0.
On to G53U A57U C110A U112A U132C, for which the self-cleavage came out at 0.06.
Turning to A57G A77G A124G A136G U143C, the self-cleavage is 1.02.
Consider A57G C95A A141G, for which the self-cleavage came to 0.17.
For A57U A77U A142C, the self-cleavage was determined as 0.05.
On to A57G G72A A117G, for which the self-cleavage came out at 0.62.
For the variant A57U A69U A124U, the self-cleavage is 0.
Take A57U A65G A77G A78G A140G A142G: the self-cleavage was found to be 0.
Turning to A57G A78U U96A, the self-cleavage was 0.04.
Turning to G54C U100A U104A, the self-cleavage is 0.14.
As to A57G A77C U81A U104C, the self-cleavage came out at 0.43.
A57G A64G A77G G80U: the self-cleavage is 0.32.
In the case of A57U A69G G106A it was 0.05; in that of A57U A59G A141G, 0.11.
In the case of A57G G75C A78G A117C, the self-cleavage was found to be 0.
In the case of G55A U91C A92U G126U A138G it was 0.1.
For the variant A57G A77G U143A, the self-cleavage amounted to 1.39.
In the case of A57U A94G A107G, the self-cleavage worked out at 0.
In the case of A57G G60A A64G A121U U132C it was 0.07; in that of A57U A136G A141G, 0.16.
As for A57U A64U A79G A92U, the self-cleavage was 0.07.
C56U A64G C76U U85C: the self-cleavage was 0.03.
On to G55U G58U U100C A140G, for which the self-cleavage came out at 0.
On to A57G A138G A140G, for which the self-cleavage was found to be 1.58.
In the case of A57U G60U U73A C98A it was 0.02.
Consider G55A A78G G114A, for which the self-cleavage was determined as 0.15.
For A57G A69G U100C A142G, the self-cleavage was 0.
Take G53A A78G A141G: the self-cleavage is 1.23.
With A57U G93A U130C, the self-cleavage came out at 0.02.
Turning to A57U G86A U130C, the self-cleavage came to 0.08.
As for G53U A78G A124G U143A, the self-cleavage was determined as 0.5.
For the variant G55A U96C U143C, the self-cleavage stood at 0.05.
As to A57G G75C A140G, the self-cleavage worked out at 0.14.
With A57U G75A U96C, the self-cleavage is 0.12.
In the case of G54U G74A A92G A124G G135A it was 0.03; in that of A57U A59G U115C, 0.15.
Regarding C56U G72C G127A, the self-cleavage is 0.2.
Take A57G U87C U112C: the self-cleavage came out at 0.31.
In the case of A57G C71U A121G it was 0.12; in that of C56U A59G U62G U102A U115A, 0.1; in that of G54A A69U G114U, 0.
Take C56U U91C U104C: the self-cleavage is 0.02.
In the case of A57G U87A A94U A136U, the self-cleavage came out at 0.07.
Regarding A57C U73C A124C, the self-cleavage is 0.
For A57U A59G A92U, the self-cleavage came out at 0.02.
As for A57G U73A U85C U108G U143C, the self-cleavage was determined as 0.66.
As to A57U A77U U85C, the self-cleavage was determined as 0.24.
Regarding C56G G114A A121U, the self-cleavage turned out to be 0.07.
In the case of G54C A65G U73C A138G it was 0; in that of C56U U62C A67G G80A, 0.05; in that of C56U U62C A77G A78G, 0.16.
In the case of G55A C71U G89A U115A A141G, the self-cleavage is 0.02.
In the case of A57G A67C A117G it was 0.32; in that of C56U U73A U130C, 0.15.
As to G53A U62C A117U A138G, the self-cleavage turned out to be 0.01.
Take A57G G86A A107U: the self-cleavage came to 0.03.
As for A57U A94C U102C G127A U134A, the self-cleavage amounted to 0.03.
Regarding A57G U62C G106U A117U A140G, the self-cleavage is 0.05.
In the case of A57G A65G U130C A140G it was 0.26; in that of A57G U96A A107G A124U, 0; in that of A57G A79U C123U G127U, 0.84.
In the case of C56U A57G A140G it was 0.15; in that of A57G U112C A140G, 0.26.
Consider A57G A64G A67G U87C C95A C99U, for which the self-cleavage stood at 0.
Regarding G55A A69G U104C G125C, the self-cleavage is 0.23.
For the variant A57G C66U A77G A140G, the self-cleavage came to 0.02.
For the variant G54U U96C A141G, the self-cleavage was found to be 0.03.
Regarding G54U A57G A92U, the self-cleavage was 0.12.
In the case of G54A U91C A124G A138G A140G it was 0.06.
Take A57U U62C U85C C123U: the self-cleavage is 0.1.
With C56G A77U U87C U102C, the self-cleavage stood at 0.09.
For G54U A79G A107U, the self-cleavage was 0.69.
In the case of A57G A69U U85A A140U it was 0.22.
Regarding A57G U102C U112C, the self-cleavage is 0.
In the case of A57U A79G U96A A138G it was 0.95; in that of A57G A78G U81C, 0.92; in that of A57G U73C U115C, 0.71.
Regarding A57G A78G C131U, the self-cleavage was found to be 0.48.
On to A57U U73G U130C A140G, for which the self-cleavage stood at 0.25.
As for C56A G93A A141G, the self-cleavage was found to be 0.03.
As to A57G U96A U112C A121G, the self-cleavage is 0.21.
In the case of G53A U109C A121G it was 0.73; in that of A57U U62A A78G G135A, 0.05.
In the case of C56G A57U U115C it was 0.09; in that of G54A U115C U132C A136G, 0.6; in that of A57G C84U U85C A107U, 0.
As to A57G U73C U130C A136G, the self-cleavage turned out to be 0.92.
In the case of A57G A65U U134C, the self-cleavage amounted to 0.3.
